# Results reported in paper PMC4336329 (PLoS ONE, 2015).
# Among all 310,000 compounds or so, about 14,000 (4.5%) showed an effect of 50% or more. Effects have a minus sign here. The list shows a part of the results.
# Target: human ether-à-go-go-related gene (hERG) potassium channel (human, UniProt Q12809)
# Assay: primary screen, population patch clamp on CHO cells stably expressing hERG
# 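Note: peak tail current of the secondary pulse compared with the same well before compound.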
# Sequence of human ether-à-go-go-related gene (hERG) potassium channel (Q12809 whole entry, looked up): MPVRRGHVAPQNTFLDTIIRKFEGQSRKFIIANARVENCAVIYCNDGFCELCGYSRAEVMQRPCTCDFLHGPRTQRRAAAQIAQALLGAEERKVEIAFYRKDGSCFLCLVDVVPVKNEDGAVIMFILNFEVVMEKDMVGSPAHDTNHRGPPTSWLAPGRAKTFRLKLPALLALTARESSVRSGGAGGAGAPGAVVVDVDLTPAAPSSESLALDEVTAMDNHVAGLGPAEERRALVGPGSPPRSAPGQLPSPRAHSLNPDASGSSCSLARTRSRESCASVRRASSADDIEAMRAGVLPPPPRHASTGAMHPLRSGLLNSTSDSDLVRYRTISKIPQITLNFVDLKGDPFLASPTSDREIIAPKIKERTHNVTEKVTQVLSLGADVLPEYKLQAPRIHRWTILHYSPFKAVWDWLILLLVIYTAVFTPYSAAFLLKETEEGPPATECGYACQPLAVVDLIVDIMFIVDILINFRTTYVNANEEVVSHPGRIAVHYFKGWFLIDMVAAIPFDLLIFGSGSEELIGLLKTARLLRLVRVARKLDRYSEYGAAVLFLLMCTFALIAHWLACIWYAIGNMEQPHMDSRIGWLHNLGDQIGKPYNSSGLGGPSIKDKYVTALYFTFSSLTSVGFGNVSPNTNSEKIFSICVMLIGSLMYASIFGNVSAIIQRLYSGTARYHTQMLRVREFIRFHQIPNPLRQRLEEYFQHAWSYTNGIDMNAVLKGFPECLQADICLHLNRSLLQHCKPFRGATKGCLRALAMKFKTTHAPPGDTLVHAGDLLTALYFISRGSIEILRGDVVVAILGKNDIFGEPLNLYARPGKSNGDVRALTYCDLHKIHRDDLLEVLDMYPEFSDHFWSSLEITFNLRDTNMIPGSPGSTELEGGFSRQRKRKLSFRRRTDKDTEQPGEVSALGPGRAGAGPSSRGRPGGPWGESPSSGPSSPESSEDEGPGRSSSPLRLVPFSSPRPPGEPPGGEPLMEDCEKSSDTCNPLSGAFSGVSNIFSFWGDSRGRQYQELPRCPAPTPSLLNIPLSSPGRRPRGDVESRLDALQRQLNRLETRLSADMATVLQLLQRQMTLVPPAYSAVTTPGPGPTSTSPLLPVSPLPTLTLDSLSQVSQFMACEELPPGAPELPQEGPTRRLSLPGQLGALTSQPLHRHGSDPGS
row,Structure (SMILES),"hERG current change (%, negative = inhibition) at 10uM [%]"
1,O=C(CCCN1C(=O)/C(=C\c2cccc(Br)c2)SC1=S)Nc1cccnc1,6.32
2,Cc1cc(C)cc(SCc2noc(C(=O)NCc3ccccc3)c2C(=O)NCc2ccccc2)c1,15
3,CCOc1cc(/C=C/C(=O)O)ccc1OCCO,6.59
4,CC(C)CCNC(=O)C(CC(C)C)N(Cc1ccc2c(c1)OCO2)C(=O)c1snc(C(N)=O)c1N (centres unmarked),-0.977
5,CCCC1C(c2ccco2)NC(c2ccco2)CC1(C)O.O=C(O)C(=O)O (centres unmarked),0.914
6,CCOc1ccccc1CNC(=O)CCNC(=O)Cn1ccc2ccccc2c1=O,5.64
7,CS(=O)(=O)Nc1ccc(N2CCCCC2)c(Cl)c1,-32.6
8,O=C(CSc1cccs1)NCCc1ccccc1,13.1
9,COc1ccc(C(c2nnnn2Cc2ccccc2)N2CCN(c3nc4ccccc4s3)CC2)cc1 (centres unmarked),13.7
10,COc1ccc(C)cc1NC(=O)CN(C)S(=O)(=O)c1ccc2c(c1)CCCN2C(C)=O,-21.8
11,CC(C)OCCCN1CN(S(=O)(=O)c2cccc(Cl)c2)c2nc3ccccc3nc21,0.29
12,CCOc1ccccc1NC(=O)NS(=O)(=O)c1ccc(C)cc1,17.2
13,Cc1cccc(N2C(=O)c3cccc4c(N5CCCCC5)c([N+](=O)[O-])cc(c34)C2=O)c1C,6.59
14,O=C(COc1ccc(Cl)cc1)N/N=C/CCc1ccccc1,-16.4
15,CCOc1ncccc1C(=O)OCC(=O)Nc1nnc(-c2ccccc2)o1,-11.3
16,CCn1c(SCc2nc3scc(-c4ccccc4)c3c(=O)[nH]2)nnc1-c1cccs1,-23.4
17,C/C=C/c1ccc(OCC(O)CNCC(c2ccc(OC)cc2)N(C)C)c(OC)c1.O=C(O)C(=O)O (centres unmarked),-66.5
18,O=C(CN1C(=O)CSC1=O)c1ccccc1,1.83
19,COc1cccc(N2CCN(C(=O)CCCCCn3c(=S)[nH]c4cc5c(cc4c3=O)OCO5)CC2)c1,20.6
20,CC1Oc2ccccc2N(CC(=O)NCc2cccs2)C1=O (centres unmarked),0.0611
21,Cc1cccc(C)c1NC(=O)CN(C)C(=O)c1ccc2c(=O)n3c(nc2c1)CCC3,9.41
22,O=[N+]([O-])C1C(c2ccccc2)=NOC1c1ccccc1O (centres unmarked),14
23,O=C(CCCN1C(=O)/C(=C/c2cccs2)SC1=S)Nc1ccc(C(=O)O)cc1,13.5
